Test results published in the supplement of paper PMC11417369.
This is one part of the list.

Test system: PfHDP1 homeodomain (GST-tagged)
Experiment: gcPBM binding intensity (ln(normalized median fluorescence intensity)); higher = stronger DNA binding
Summary of the method: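 An Agilent 4 × 180k array carrying primer-extended double-stranded 36-bp intergenic genomic probes and negative controls received GST-tagged P. falciparum DNA-binding domains expressed in E. coli, about 25 μg on average, for 1 h. The binding buffer contained 1× PBS, 1% milk, 0.2 mg/ml BSA, 0.5% salmon testes DNA and 0.03% Triton X-100. Binding intensity is the top Masliner-normalised natural-log median intensity across replicate spots of either probe orientation, read after Alexa488 anti-GST antibody staining and a 488 nm scan.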

Question: How did the “gcPBM binding intensity (ln)” value turn out when “ATTTCTTCTTTTTTTGTGAAACTGGAATATATATAT [XGTACX_negctrl_site527]” was run?
Answer: Its value is 7.42.

Question: “TATATATATTATTATGCATGTAATAAAACAAATAAT [TGCATGCA_site625]” was tested. Which “gcPBM binding intensity (ln)” value did it give?
Answer: Its value is 6.83.

Question: How did the “gcPBM binding intensity (ln)” value turn out when “ACGTTACATACATATACACACACATATATATATATA [CACACA_site8203]” was run?
Answer: Its value is 9.27.

Question: Which “gcPBM binding intensity (ln)” value does the source give for GATGTTTCTATTTTAGTGCATTTTAAATAAATAAAT here?
Answer: The value was 9.22.

Question: How did the “gcPBM binding intensity (ln)” value turn out when “GGTGGTGGTGGGTGGGTGCTTCTATTATTATATTAT [GTGCAC_site9391]” was run?
Answer: Its value is 7.17.

Question: How did the “gcPBM binding intensity (ln)” value turn out when “ATATATATTTTAATAACACACATATATTATATTATA [CACACA_site4387]” was run?
Answer: Its value is 6.42.

Question: How did the “gcPBM binding intensity (ln)” value turn out when “CTTAGGTGTTCATAGAGTACAAATAAAAAAATAAGA [XGTACX_site2294]” was run?
Answer: Its value is 6.58.

Question: For “TCATTCTAAATATAAACACACATAAATAAATACATT [CACACA_site5788]”, which “gcPBM binding intensity (ln)” value is on record?
Answer: Its value is 6.57.

Question: With “TTTTTATTATTTTAAAGTACTCTTTAGTAATTCCCT [XGTACX_site5863]” as the sequence, how does the “gcPBM binding intensity (ln)” value read?
Answer: Its value is 6.13.

Question: How did the “gcPBM binding intensity (ln)” value turn out when “AAAAAACATACATACACACACATAAATATTTATATT [CACACA_site7300]” was run?
Answer: The value was 6.79.

Question: “CACAGATAAATTAACACACACACACCGATATATATA [CACACA_site6049]” was tested. Which “gcPBM binding intensity (ln)” value did it give?
Answer: Its value is 7.

Question: For “AATATTTCTTTAATTTGTACATATAAGGGAAAATAA [XGTACX_site6221]”, which “gcPBM binding intensity (ln)” value is on record?
Answer: The value was 6.58.

Question: Which “gcPBM binding intensity (ln)” value does the source give for “TTTTATTAATATTGCATGCACACTATATAATAATTG [CACACA_site1049]” here?
Answer: The value was 9.

Question: Which “gcPBM binding intensity (ln)” value does the source give for “CGGAAAAATTAAAGCACACAAAAAAAAATAAAAAAA [CACACA_site1133]” here?
Answer: Its value is 6.31.

Question: For “ATATATATTTTTATAACACACAATGATGTACATTAC [CACACA_site1076]”, which “gcPBM binding intensity (ln)” value is on record?
Answer: Its value is 6.7.

Question: “TTTGTGCTTATCCTAACACACACAACATATAAGAAA [CACACA_site9091]” was tested. Which “gcPBM binding intensity (ln)” value did it give?
Answer: The value was 6.73.

Question: “TTATATATACCATAATGTACTCTATTATATAAAAAA [XGTACX_site7464]” was tested. Which “gcPBM binding intensity (ln)” value did it give?
Answer: The value was 6.6.

Question: For “TGTGTAGCTAGGGGGTTGCTAATTTTTGTTTTGACC [CACACA_negctrl_site634]”, which “gcPBM binding intensity (ln)” value is on record?
Answer: The value was 7.12.

Question: How did the “gcPBM binding intensity (ln)” value turn out when “AGAAAAAACAAAAGAGAAATGAAAAAAAAAAAAAAA [XGTACX_negctrl_site482]” was run?
Answer: The value was 6.08.

Question: For TAAAATAATATTTATGTGCACATATAATTATTAATT, which “gcPBM binding intensity (ln)” value is on record?
Answer: The value was 10.7.

Question: Which “gcPBM binding intensity (ln)” value does the source give for “ATATAGATCTATAATACACACTTATGAAATGTCTAA [CACACA_site6946]” here?
Answer: Its value is 6.33.

Question: For “TTGTTTCCGATGAAAGAAAGGAAATTATAATATATC [GTGCAC_negctrl_site516]”, which “gcPBM binding intensity (ln)” value is on record?
Answer: The value was 6.53.

Question: With “GTCTCCTTTATTTTTGGTACAGATAAGATAAAAGGA [XGTACX_site1591]” as the sequence, how does the “gcPBM binding intensity (ln)” value read?
Answer: The value was 6.46.

Question: How did the “gcPBM binding intensity (ln)” value turn out when “AATCAAAATATATCTACACACATTTAAGTAACCCAT [CACACA_site5846]” was run?
Answer: The value was 6.56.

Question: How did the “gcPBM binding intensity (ln)” value turn out when “TATAACATTATTTTGTGTACACATTCGGTTATATTA [XGTACX_site6310]” was run?
Answer: The value was 7.79.

Question: “GTGTTCATATATAGCCGTACATATGTCTTATGAACG [XGTACX_site5647]” was tested. Which “gcPBM binding intensity (ln)” value did it give?
Answer: The value was 6.65.

Question: For “ATTATCAAAAAAAAAAAAAAAAAAAAAAAAAAAAAA [CACACA_negctrl_site1118]”, which “gcPBM binding intensity (ln)” value is on record?
Answer: Its value is 6.32.

Question: With “TACCTTATATTATATACACACATATAATATAATATA [CACACA_site1328]” as the sequence, how does the “gcPBM binding intensity (ln)” value read?
Answer: Its value is 7.09.

Question: Which “gcPBM binding intensity (ln)” value does the source give for “GATTCATTTCGTAATACACACAACAAATATTTCAAA [CACACA_site1772]” here?
Answer: Its value is 6.86.

Question: Which “gcPBM binding intensity (ln)” value does the source give for “AATGTAAATAAGTGTACACATATATAATACATACAT [CACACA_site4938]” here?
Answer: Its value is 6.85.

Question: Which “gcPBM binding intensity (ln)” value does the source give for “TGAGAATAAAAAAAAGGGATTATTAGATTTCTCCTT [TGCATGCA_negctrl_site326]” here?
Answer: The value was 5.62.

Question: For “TTATGTTGCGAGTTCTTAAGATATAAAAAATTCTTC [GTGCAC_negctrl_site45]”, which “gcPBM binding intensity (ln)” value is on record?
Answer: Its value is 6.31.

Question: For “ATCATAACTTGATACGCACACGTTATATAAATAAAA [CACACA_site4955]”, which “gcPBM binding intensity (ln)” value is on record?
Answer: Its value is 6.73.

Question: How did the “gcPBM binding intensity (ln)” value turn out when “AAAAAAATAAGGTGCACACAAAAAAAAAAAAAAAAA [CACACA_site812]” was run?
Answer: Its value is 9.95.

Question: How did the “gcPBM binding intensity (ln)” value turn out when “AAGACAAATTGTGACACACACAAAAAAAAAAAAAAA [CACACA_site3727]” was run?
Answer: Its value is 6.09.

Question: “TATTGGATCACACAAAAATGTATAAATAAATAGAAA [TGCATGCA_negctrl_site490]” was tested. Which “gcPBM binding intensity (ln)” value did it give?
Answer: The value was 6.17.

Question: “ATTCAATAAACGTATTGTACAAAAGAACGATATATT [XGTACX_site2533]” was tested. Which “gcPBM binding intensity (ln)” value did it give?
Answer: Its value is 6.65.

Question: Which “gcPBM binding intensity (ln)” value does the source give for “TATATATATATATTCACACATAAGATGAATAAAGTG [CACACA_site4225]” here?
Answer: The value was 9.09.

Question: “ACCATAACATGAATTACAGGAATTGAAAATGTTCCA [CACACA_negctrl_site649]” was tested. Which “gcPBM binding intensity (ln)” value did it give?
Answer: The value was 6.1.

Question: How did the “gcPBM binding intensity (ln)” value turn out when “TTCTTTATTTTTTCTACACACATTAGATATTCAAAG [CACACA_site7624]” was run?
Answer: The value was 6.98.

Question: How did the “gcPBM binding intensity (ln)” value turn out when “CAAAATTAATAAGTCACACACACATCTATAATATAT [CACACA_site6519]” was run?
Answer: The value was 6.69.

Question: For “GGTTACATTTTATTTTGTACATAAAAATTTTTATTT [XGTACX_site218]”, which “gcPBM binding intensity (ln)” value is on record?
Answer: The value was 6.79.

Question: GTATTATATATAAAAGTGCATATTTTTTTCCCTTAC was tested. Which “gcPBM binding intensity (ln)” value did it give?
Answer: The value was 8.14.

Question: With “TGTTTATAAATATAAAAAAATATATATATATATTAT [GTGCAC_negctrl_site247]” as the sequence, how does the “gcPBM binding intensity (ln)” value read?
Answer: The value was 6.5.
